Assay results reported in paper PMC4336329 (PLoS ONE, 2015).
The campaign covered roughly 310,000 compounds. About 14,000 (4.5%) showed an effect of 50% or more. The effect is printed as a negative number. The list shows a part of the results.

Target: human ether-à-go-go-related gene (hERG) potassium channel (human, UniProt Q12809)
Test: primary screen, population patch clamp on CHO cells stably expressing hERG
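Also: peak tail current of the secondary pulse compared with the same well before compound.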

Chain of human ether-à-go-go-related gene (hERG) potassium channel (Q12809 whole entry, looked up): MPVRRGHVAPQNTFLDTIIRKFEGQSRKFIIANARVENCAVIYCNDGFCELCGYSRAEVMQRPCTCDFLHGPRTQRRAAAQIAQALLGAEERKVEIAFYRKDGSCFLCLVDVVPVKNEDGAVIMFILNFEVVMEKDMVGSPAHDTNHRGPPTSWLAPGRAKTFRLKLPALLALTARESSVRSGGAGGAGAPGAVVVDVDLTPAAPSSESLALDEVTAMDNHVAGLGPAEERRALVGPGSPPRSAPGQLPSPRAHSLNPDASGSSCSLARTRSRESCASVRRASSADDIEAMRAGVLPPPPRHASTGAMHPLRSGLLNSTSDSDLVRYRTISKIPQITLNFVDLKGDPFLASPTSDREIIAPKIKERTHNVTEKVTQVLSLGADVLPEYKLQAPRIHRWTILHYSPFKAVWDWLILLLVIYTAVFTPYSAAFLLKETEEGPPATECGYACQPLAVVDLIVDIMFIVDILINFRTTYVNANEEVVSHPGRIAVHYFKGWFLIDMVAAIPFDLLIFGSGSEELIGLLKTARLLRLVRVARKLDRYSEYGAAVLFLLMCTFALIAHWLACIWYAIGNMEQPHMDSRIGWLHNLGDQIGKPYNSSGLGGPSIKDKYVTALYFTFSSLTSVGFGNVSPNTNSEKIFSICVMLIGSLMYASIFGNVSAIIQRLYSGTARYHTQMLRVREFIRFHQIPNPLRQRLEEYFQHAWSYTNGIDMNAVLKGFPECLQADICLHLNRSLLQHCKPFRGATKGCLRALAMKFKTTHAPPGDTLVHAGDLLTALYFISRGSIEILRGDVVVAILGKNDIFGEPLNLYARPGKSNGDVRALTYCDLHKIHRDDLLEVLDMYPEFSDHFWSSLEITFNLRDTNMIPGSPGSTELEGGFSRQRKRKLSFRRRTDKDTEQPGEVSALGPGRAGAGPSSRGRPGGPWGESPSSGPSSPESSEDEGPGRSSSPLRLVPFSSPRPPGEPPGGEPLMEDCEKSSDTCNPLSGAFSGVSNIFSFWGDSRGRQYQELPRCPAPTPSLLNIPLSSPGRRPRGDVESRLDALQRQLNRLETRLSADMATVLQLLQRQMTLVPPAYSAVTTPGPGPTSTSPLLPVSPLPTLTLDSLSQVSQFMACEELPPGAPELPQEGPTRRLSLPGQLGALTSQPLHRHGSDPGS

Row | SMILES | hERG current change (%, negative = inhibition) at 10uM [%]
1 | COc1ccc(/C=C2/SC(=O)N(CCC(=O)Nc3ccc(C)cc3)C2=O)cc1OC | -0.743
2 | CCOC(=O)CC(N)c1cccc([N+](=O)[O-])c1.Cl (stereo not shown) | 2.9
3 | O=C1c2ccccc2NC(c2ccc(O)cc2)N1c1ccccc1 (stereo not shown) | -1.54
4 | COc1ccc(N2C(=O)c3ccc(NC(C)=O)cc3C2=O)cc1 | 20.2
5 | Cc1cnc(NC(=O)CSC(=S)N2CCOCC2)s1 | 15.4
6 | CNc1sc(C(=O)c2cccs2)c(N)c1-c1nc2ccccc2s1 | 17.7
7 | Cc1cccc(-n2ccc(=O)c(C(=O)Nc3ccc(S(=O)(=O)Nc4onc(C)c4C)cc3)n2)c1 | 8.19
8 | CC(C)Oc1ccc(CCNC(=O)CC2C(=O)NCCN2C)cc1 (stereo not shown) | 19.5
9 | O=C(NNC(=O)c1nn(-c2ccc(F)cc2)ccc1=O)c1ccccc1Cl | -5
10 | O=C(Nn1c(-c2ccc(Cl)cc2)nc2ccccc2c1=O)c1cccnc1Cl | 5.79
11 | COc1ccc(C(=O)C2CCCN(C(=O)Cn3nc(C)cc3C)C2)cc1F (stereo not shown) | -17.4
12 | COC(=O)c1sccc1NC(=S)Nc1ccc(F)cc1F | 10.3
13 | Cc1ccc[n+](CC(=O)c2ccc(NC(=O)c3ccccc3)cc2)c1.[Br-] | 16.8
14 | CCC(=O)NCCc1nc2cc(NC(=O)c3ccccc3Cl)ccc2n1C | 1.55
15 | COc1ccccc1Nc1ccc(N)cc1 | -3.18
16 | COCCC(=O)N1CCC(Oc2ccc(C(=O)NC3CCOC(C)(C)C3)cc2)CC1 (stereo not shown) | 14.9
17 | COc1cc(Nc2nc(SCC#N)nc3ccccc23)cc(OC)c1OC | -32
18 | COc1ccc(CN(CCCN2CCOCC2)C(=O)Nc2cccc(Cl)c2)cc1OC | -39.3
19 | CCOC(=O)c1sc(NC(=O)CC)c(C#N)c1C | 6.06
20 | O=C(O)CCSc1ncnc2sc(-c3ccccc3)cc12 | -23.6
21 | CCn1c(N2CCN(C(=O)NC3CCCCC3)CC2)nc2ccccc21 | -32.5
22 | c1ccc(CSc2ncccn2)cc1 | 5.28
23 | CC(C)NCC(O)c1ccc(C2CCCC2)cc1.O=C(O)/C=C\C(=O)O (stereo not shown) | -15.5

Row | SMILES | hERG current change (%, negative = inhibition) at 10uM [%]
24 | CCOC(=O)C1=C(C)N=C2SC(C(=O)OC)=CC(=O)N2C1c1ccc(F)cc1 (stereo not shown) | 11
25 | COc1ccc(S(=O)(=O)N2CCC(C(=O)N3CCc4ccccc4C3)CC2)cc1C | -19.7
26 | O=C(NCC1CCCCC1)C12CN(Cc3ccccc3)CC1C(c1cccc([N+](=O)[O-])c1)=NO2 (stereo not shown) | -21.8
27 | CCOC(=O)C(C)/C(C)=N/NC(=O)CCC(=O)Nc1cc(C)ccc1C (stereo not shown) | 13.5
28 | O=C(CN1CCC(C(=O)c2ccc(Cl)cc2)CC1)Nc1ccc2c(c1)OCCO2 | -44.9
29 | Cc1nc2cc(-c3cccs3)nn2c(NCC(C)(C)CN(C)C)c1C | -12.2
30 | O=C(CP(=O)(c1ccccc1)c1ccccc1)Nc1nc2ccc(Cl)cc2s1 | -3.84
31 | O=C(N1CCOCC1)N1CCC(n2nnc3ccccc32)CC1 | 0.835
32 | Cc1ccc(OC(=O)c2cccnc2)cc1 | 21.6
33 | CC1(C)CC(=O)c2cc(OCC(=O)N3CCCCCC3)ccc2O1 | -18.7
34 | CCOCCCNC(=S)Nc1ccc2nc(N3CCN(CC)CC3)cc(C)c2c1 | 4.36
35 | O=C(COc1cc(F)ccc1[N+](=O)[O-])NCCCc1ccccc1 | -34.6
36 | Cc1ccc(NC(=O)CSCC(=O)NCc2cccc(C(F)(F)F)c2)cc1 | -2.27
37 | CC(C)(C)S(=O)(=O)c1nc2ccccc2s1 | 6.74
38 | Cl.OC(C#CCN1CCOCC1)(c1ccccc1)C1CCCC1 (stereo not shown) | 14.5
39 | CCOC(=O)c1cccc(NC(=O)CSc2nnc(C3CCCCC3)n2CC)c1 | -27.9
40 | O=C(CC1C(=O)NCCN1Cc1ccc(F)c(F)c1)NCCCn1ccnc1 (stereo not shown) | 19
41 | Cc1ccsc1/C=N/NC(=O)c1nnn(-c2nonc2N)c1C(C)C | 5.93
42 | CSc1nnc(NC(=O)c2ccc(C)c(S(=O)(=O)N3CCOCC3)c2)s1 | 0.594
43 | CCOC(=O)c1cc(-c2ccccc2C)n(Cc2cc(C)no2)n1 | -7.87
44 | COc1cc(CC(NC(C)=O)C(=O)NC2CCN(C(=O)c3ccc(C)cc3)CC2)cc(OC)c1 (stereo not shown) | -12
45 | CCOc1ccc(N(CC(=O)NCCC2=CCCCC2)S(=O)(=O)c2ccccc2)cc1 | 24.3
46 | Nc1cnccc1C(=O)O | 24.5

Row | SMILES | hERG current change (%, negative = inhibition) at 10uM [%]
47 | CC(Oc1ccccc1)C(=O)Nc1cccc(NC(=O)c2ccco2)c1 (stereo not shown) | -19.2
48 | CC1CC(C)CN(S(=O)(=O)N2CCCC(C(=O)NCCc3ccc(Cl)cc3)C2)C1 (stereo not shown) | 6.84
49 | Cc1ccc(NC(=O)NC2CCCCCCC2)cc1 | 15.7
50 | CC(=O)N(CCCN(C)C)c1nc2ccc(C)cc2s1.Cl | -7.07
51 | CCOC(=O)N1CCN(c2c(-c3ccccc3)c3cc(Cl)ccc3[nH]c2=O)CC1 | -11.4
52 | CC(/C=N/n1cnnc1)=C\c1ccco1 | -16.9
53 | CC(C)Cc1nnc(NS(=O)(=O)c2ccc(Cl)cc2)s1 | 8.2
54 | CN(C(=O)c1cccnc1)c1nnc(-c2cccnc2)s1 | 14.4
55 | CC(C)Cn1c(N)c(C(=O)COC(=O)c2ccc([N+](=O)[O-])o2)c(=O)n(C)c1=O | -69.5
56 | CCOC(=O)C(C)n1ncn2cccc2c1=O (stereo not shown) | 11.9
57 | NC(=O)C1(N2CCCCC2)CCN(Cc2nc3ccccc3c(=O)[nH]2)CC1 | -0.257
58 | O=C(NCc1ccc2c(c1)OCO2)c1ccc(Cl)nc1 | -22.2
59 | CCCn1nnnc1NCc1ccccc1C | 14.7
60 | Cc1nc(CCNC(=O)C2CCC(=O)N(Cc3cccc(F)c3)C2)sc1C (stereo not shown) | 2.11
61 | Cc1ccsc1/C=C1/SC(=O)N(CC(=O)N2CCCC2)C1=O | 8.21
62 | Cc1ccc(NCc2cccnc2)cc1 | 2.82
63 | Cc1ccn2c(C(=O)NN=C3CCCCCCC3)c(C)nc2c1 | 9.89
64 | CCOC(=O)CN1C(=O)C(O)=C(C(C)=O)C1c1ccccc1 (stereo not shown) | 11.3
65 | O=C(O)C1CCCN1c1ncnc2c1oc1ccccc12 (stereo not shown) | 13.7
66 | CC(C)C(NC(=O)c1ccccc1F)C(=O)Nc1ccc2c(c1)OCO2 (stereo not shown) | 0.195
67 | CN(CCC#N)C(=O)COC(=O)c1c2c(nc3ccccc13)/C(=C/c1ccco1)CC2 | 4.03
68 | CC1CCC/C(=N\NC(=O)COc2ccc(Cl)cc2Cl)C1 (stereo not shown) | -6.6
69 | Cc1ccc(OCC(=O)N/N=C2\CCOc3c(C)cccc32)cc1 | -1.22

Row | SMILES | hERG current change (%, negative = inhibition) at 10uM [%]
70 | CC(=O)N1CC(C)Sc2ccc(S(=O)(=O)NCc3ccc(F)cc3)cc21 (stereo not shown) | -49.6
71 | Cc1cccc(C(C)(C)C)c1OCCCCN1CCCC1.O=C(O)C(=O)O | -38.2
72 | O=C(Cc1cccc(F)c1)N1CCCC(CO)(Cc2ccc(F)cc2F)C1 (stereo not shown) | -9.84
73 | O=C(c1ccccc1)N1CCN(C(=O)c2nn3c(C(F)(F)F)cc(-c4ccco4)nc3c2Cl)CC1 | 23.6
74 | COc1ccc(-c2[nH]ncc2N=Nc2ccccc2)cc1 | 21.5
75 | CSC(=O)NC12CC3CC(CC(C)(C3)C1)C2 | 2.42
76 | COc1ccc2c(=O)cc(-c3ccccc3F)oc2c1 | 1.75
77 | CC(=O)c1cccc(NC(=O)CN2C(=O)C3C4C=CC(C4)C3C2=O)c1 (stereo not shown) | 7.68
78 | COc1ccc(N2CCN(C3=CC(=O)N(c4cccc(Cl)c4)C3=O)CC2)cc1 | -41.7
79 | COc1ccc(C)cc1NC(=O)c1cccc(-c2ccc(OC(C)=O)cc2)c1 | 28.5
80 | Nc1ccc2oc(C3CCCCC3)nc2c1 | 6.72
81 | COc1ccccc1OCC(=O)OCC(=O)Nc1ncc(Cl)cc1Cl | 12.8
82 | Cc1cc(N=CC2=C(O)CC(C)(C)CC2=O)no1 | -14.5
83 | CCOC(=O)CCc1c(C)nc2cc(-c3ccccc3OC)[nH]n2c1=O | 3.82
84 | COC(=O)C(=NNc1c(C)n(C)n(-c2ccccc2)c1=O)C(=O)OC | 9.93
85 | CCc1nc(SCC(=O)N2CC(=O)Nc3ccccc32)c2c(C)c(C)sc2n1 | 18.3
86 | O=C(NCCC1=CCCCC1)c1ccc([N+](=O)[O-])cc1 | -14.9
87 | CC(C)CC1C(C#N)=C(N)Oc2c1c(=O)oc1ccccc21 (stereo not shown) | 8.62
88 | CC12CC(NC(=O)N1c1cccc(C(=O)NCc3ccc4c(c3)OCO4)c1)c1cc(Cl)ccc1O2 (stereo not shown) | -11.1
89 | O=C(O)CC(Cc1ccccc1)C(=O)NCC12CC3CC(CC(C3)C1)C2 (stereo not shown) | 8.26
90 | COc1cc(OC)c(C(=O)Nc2cccc(C(C)=O)c2)cc1OC | -9.08
91 | C=C1SC(=Nc2c(C)cccc2Cl)N(C(=O)c2sc3ccccc3c2Cl)C12CCCCC2 | 25.8
